In PubChem BioAssay AID1347073 (National Center for Advancing Translational Sciences (NCATS), 2019):
Among all 45,000 compounds or so, about 200 (0.44%) were called active. Not shown: some 7% with an inconclusive outcome. Calls come from the whole dose curve; as a rule, active = well fitted activation curve with a large enough effect; inconclusive = small, poorly fitted or top-dose-only effect; inactive = no such curve, though single readings can be large or run the other way. The list shows a part of the results.

assay: qHTS of TDP-43 Inhibitors: NCGC Sytravon Library Screen; conditions: yeast TDP-43 toxicity rescue, BacTiter-Glo growth, 24 h; series mostly up to 46.1 µM; growth rescue (activation): at the top concentration; note: 0% is about no effect; nearly all actives have a fitted effect of over 55% in size
Procedure, shortened: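 TDP-43-expressing yeast, pregrown in raffinose, seeded at OD600 0.02 in galactose medium with compound for 24 hr at 30 deg C. Growth read by BacTiter-Glo luminescence, so rescue of toxicity appears as activation.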

Row | SMILES | growth rescue (activation)
1 | O=C(Nc1ccccc1)N1CCC(O)(c2cccc(C(F)(F)F)c2)CC1 | inactive: -5.77%
2 | CC(=O)c1ccc(S(=O)(=O)Oc2ccc(-c3ccc(C(=O)O)cc3)cc2)cc1 | inactive: 1.12%
3 | CC1(C(=O)NS(=O)(=O)c2ccc(C#N)cc2)CCN1C(=O)Cc1ccccc1Cl (stereo not drawn) | inactive: 5.81%
4 | CCC(=O)NC1(C(F)(F)F)C(=O)Nc2c1c(=O)[nH]c(=O)n2Cc1ccco1 (stereo not drawn) | inactive: 6.06%
5 | O=C(Cc1ccccc1Cl)Nc1cccnc1 | inactive: 11.7%
6 | Cc1nn(C)cc1CN(C)Cc1c(C(=O)N(C)Cc2ccccc2)nc2ccccn12 | inactive: -0.631%
7 | Cc1ccc(Nc2nc3nonc3[nH]c2=O)cc1Cl | inactive: -8.79%
8 | Cc1ccc2c(c1)c1c3n2CCN(CC#N)C3CCC1 (stereo not drawn) | inactive: 4.86%
9 | S=C(NC1CCCC1)N1CCOCC1 | inactive: -3.2%
10 | O=C(NC1CCCC1)C(c1ccccn1)N(C(=O)c1csnn1)c1ccccc1Cl (stereo not drawn) | inactive: 7.71%
11 | Clc1cccc(OCCN2CCN(CCOc3cccc(Cl)c3)CC2)c1 | inactive: 3.36%
12 | COc1ccccc1NS(=O)(=O)c1ccc(C(=O)NCc2ccc(S(N)(=O)=O)cc2)cc1 | inactive: -5.13%
13 | CCn1ccnc1CN(C)Cc1c(C(=O)N2C[C@@H](C)O[C@@H](C)C2)nc2ccc(Cl)cn12 | inactive: 16.4%
14 | CC(C)Oc1ccc(C(=O)NC(=S)N2CCOCC2)cc1 | inactive: 27.3%
15 | Cc1ccc(S(=O)(=O)N2CC(O)C[C@H]2C(=O)OCC(=O)c2ccccc2)cc1 (stereo partly drawn) | inactive: 15%
16 | COc1ccc(Cl)cc1NC(=O)CSc1nc(NS(=O)(=O)c2ccccc2)cc(=O)[nH]1 | inactive: 10.4%
17 | O=C(Nc1ccc(Oc2nnc(-c3ccccc3)c3ccccc23)cc1)c1ccccc1 | inactive: 15.2%
18 | CCNC(=O)CN1C(=O)NC2(CCOc3ccccc32)C1=O (stereo not drawn) | inactive: -12.2%
19 | CCOC(=O)C1CCCN(C(=O)CNC(=O)c2nn(-c3ccc(OC)c(Cl)c3)c(=O)c3ccccc23)C1 (stereo not drawn) | inactive: 14%
20 | CC(=O)Nc1cccc(OCC(=O)Nc2ccc(F)cc2)c1 | inactive: 13.5%
21 | CCN(CC)CCNC(=O)c1cc2c(=O)n(CC)c3ccccc3c2s1 | inactive: -4.36%
22 | COc1ccccc1CNC(=O)CN1C(=O)NC2(CCCCCCC2)C1=O | inactive: 3.61%
23 | Cc1ccc2c(c1)C(=O)C(=O)N2CC(=O)Nc1ccccc1NC(=O)c1ccccn1 | inactive: -10.3%

Row | SMILES | growth rescue (activation)
24 | COc1ccc(N(CC(=O)NCc2ccco2)S(C)(=O)=O)c(OC)c1 | inactive: -0.0257%
25 | Cc1cccc(-n2c(SCC(=O)N3CCCC3)nnc2-c2ccccn2)c1C | inactive: 31.3%
26 | CCCc1nc(SCC(=O)N2CCOCC2)c2c(C)c(C)sc2n1 | inactive: 12.8%
27 | O=C(CNC(=O)c1ccc(F)cc1)c1ccc(Cl)cc1 | inactive: -38.7%
28 | COC(=O)C(NS(=O)(=O)c1ccc(C)cc1)c1ccccc1 (stereo not drawn) | inactive: -11.4%
29 | O=C(NCc1ccco1)/C(=C/c1ccc([N+](=O)[O-])cc1)NC(=O)c1ccco1 | inactive: 8.84%
30 | Cc1cc(C(=O)N/N=C(\CCC(=O)O)c2cccs2)c2ccccc2n1 | inactive: 9.23%
31 | COc1ccc(-c2csc3nc[nH]c(=O)c23)cc1OC | inactive: -3.28%
32 | Cc1cc2nc(/N=C(\N)NC(=O)N3c4ccccc4Sc4ccccc43)nc(C)c2cc1C | inactive: 18.8%
33 | CCCOc1ccccc1NC(=O)Nc1ccccc1Cl | inactive: 2.69%
34 | N=c1c(S(=O)(=O)c2ccccc2)cc2c(=O)n3ccccc3nc2n1C1CCCCC1 | inactive: -2.44%
35 | Cc1cccc(NS(=O)(=O)c2ccc(C)c(NS(=O)(=O)c3cccs3)c2)c1 | inactive: -26.4%
36 | CCCNC(=O)C1(C)CCCN(Cc2ccc(Cl)cc2)C1 (stereo not drawn) | inactive: 7.64%
37 | CCc1nc2c(OCc3ccc(F)c(F)c3)cccn2c1N(C)C(=O)c1ccc(OC)cc1 | inactive: -4.48%
38 | Cc1ccccc1OCC(=O)NCCNC(=O)c1ccncc1 | inactive: -6.21%
39 | CCCCOc1ccc(C(O)(CCC)CCN2CCOCC2)cc1 (stereo not drawn) | inactive: -3.25%
40 | O=C(COC(=O)c1ccc([N+](=O)[O-])o1)Nc1ccc2c(c1)OCO2 | inactive: -72.8%
41 | CN(C)C(=S)NC(=O)C12CC3CC(C)(CC(C)(C3)C1)C2 | inactive: 28.5%
42 | NC(=O)N/N=C/c1ccccc1OC(=O)c1ccccc1Br | inactive: -20.4%
43 | Cc1cccc(NC(=O)c2ccc([N+](=O)[O-])cc2Cl)n1 | inactive: 20.3%
44 | CCOc1ccc(C2CC(c3c(O)c4ccccc4oc3=O)=NN2c2ccccc2)cc1OC (stereo not drawn) | inactive: -10.3%
45 | O=C(O)Cc1sc(NC2CCCCC2)nc1-c1ccc(Cl)cc1 | inactive: 10.4%
46 | Cc1ccccc1NC(=O)/C=C1\SC(=O)NC1=O | inactive: 5.65%

Row | SMILES | growth rescue (activation)
47 | O=[N+]([O-])c1ccc(S(=O)(=O)Nc2ccc(S(=O)(=O)N3CCCC3)cc2)cc1 | inactive: -3.83%
48 | Cc1ccc(NC(=O)CN(c2ccccc2F)S(C)(=O)=O)cc1 | inactive: 34.8%
49 | COc1cc(/C=N/Nc2ccc([N+](=O)[O-])cn2)cc(OC)c1O | inactive: 6.1%
50 | O=C(CC1SC(=Nc2ccc3c(c2)OCCO3)NC1=O)Nc1ccc(F)cc1F (stereo not drawn) | inactive: 24%
51 | Cc1cc(C)c(S(=O)(=O)N2CCN(C(=O)C(C)Cn3nc(C)nc3C)CC2)c(C)c1 (stereo not drawn) | inactive: 10.5%
52 | O=c1c2ccccc2c(-c2ccccc2)nn1Cc1ccccc1 | inactive: 9.96%
53 | NC(=O)Cn1cnc2c(nnn2-c2ccc(F)cc2)c1=O | inactive: 0.167%
54 | CCCN(CCC)CCCNC(=O)c1cn(CC)c2ccc(S(=O)(=O)N3CCc4ccccc4C3)cc2c1=O | inactive: 2.22%
55 | NC1=NC(=O)/C(=C/c2ccccc2OCC(=O)Nc2ccc(F)cc2)S1 | inactive: -4.44%
56 | COc1cc(F)ccc1-c1cc(C(=O)NCc2cc(C(F)(F)F)cc(C(F)(F)F)c2)[nH]n1 | inactive: 4.95%
57 | Cc1ccccc1NC(=S)NN1CCN(C)CC1 | inactive: -2.69%
58 | CC(C)c1ccc(NC(=O)C2CCCN(S(=O)(=O)c3ccc4[nH]c(=O)ccc4c3)C2)cc1 (stereo not drawn) | inactive: 7.41%
59 | Clc1ccc(Nc2ccccc2)nn1 | inactive: -3.43%
60 | Nc1cc(C(=O)OCC(=O)NNC(=O)c2ccccc2F)ccc1Cl | inactive: 12.4%
61 | Cc1cc(N/N=C/c2cccc(Cl)c2)nc(NCc2ccccc2)n1 | inactive: 20%
62 | COc1cccc(NC(=O)C2(C)CCN2Cc2ccc3ccccc3c2)c1 (stereo not drawn) | inactive: 4.23%
63 | Oc1ccccc1Cn1nnc2ccccc21 | inactive: 4.61%
64 | CCC1CCCCN1S(=O)(=O)c1ccc(-n2cnnn2)c(C)c1 (stereo not drawn) | inactive: 22.3%
65 | CCOC(=O)c1c(C)c(C)n(Cc2cccc(OC)c2OC)c1C | inactive: 17.8%
66 | CC(=O)Nc1ccc(NC(=O)c2cc[n+]([O-])cc2)cc1 | inactive: -5.11%
67 | CSc1cccc(CNC(=O)C2CCC(=O)N(CCc3ccccn3)C2)c1 (stereo not drawn) | inactive: 8.88%
68 | CCOc1ccccc1C(=O)N[C@H](C(=O)Nc1nc2c(s1)CCCC2)C(C)C | inactive: 1.86%
